Source: the supplement of paper PMC8813932
Structures can show the parent of a compound that is named as a salt. ± gives the standard deviation of the averaged measurements. Some of the results follow. Many values rest on one well or one pass, so single values are uncertain.

What was measured:
Assay in all cases: log2 surviving fraction relative to plate median (drug vs vehicle, or drug+dl922-947 vs dl922-947 alone); ovarian cancer lines: OVCAR4 is platinum-sensitive while Ov4Cis resists cisplatin and Ov4Carbo carboplatin; higher = more cell survival
Details in all cases: compound concentration: 10 uM, 192 h
OVCAR4 = tested on: OVCAR4
Ov4Carbo = tested on: Ov4Carbo
Ov4Cis = tested on: Ov4Cis
[1] = dl922-947 oncolytic adenovirus co-treatment: MOI 10
[2] = dl922-947 oncolytic adenovirus co-treatment: none

SMILES	log2 surviving fraction (OVCAR4; [1])	log2 surviving fraction (OVCAR4; [2])	log2 surviving fraction (Ov4Carbo; [1])	log2 surviving fraction (Ov4Carbo; [2])	log2 surviving fraction (Ov4Cis; [1])	log2 surviving fraction (Ov4Cis; [2])
C[C@@H]1O[C@@H]1P(=O)(O)O [Fosfomycin Tromethamine]	0.331 ± 0.15	0.664 ± 0.58	0.403	0.339	-0.796	0.463
CCN(CC)CC(=O)Nc1c(C)cccc1C [Lidocaine (Alphacaine)]	-0.325 ± 0.16	0.349 ± 0.4	-0.818	-0.668	0.473	0.644
CC[C@@H](C(N)=O)N1CCCC1=O [Levetiracetam]	-0.0271 ± 0.62	0.919 ± 0.56	0.08	-0.555	0.847	0.312
O=C1O[C@H]([C@@H](O)CO)C([O-])=C1O.[Na+] [Sodium ascorbate]	0.508 ± 0.28	0.33 ± 1.1	0.972	0.855	-0.0615	1.26
CCN[C@H]1CN(CCCOC)S(=O)(=O)c2sc(S(N)(=O)=O)cc21 [Brinzolamide]	0.316 ± 0.29	1.06 ± 1.2	-0.253	0.327	-0.234	0.228
O=S(=O)(O)c1cc(O)ccc1O [Ethamsylate]	0.433 ± 0.55	-0.284 ± 0.26	1.02	0.223	-0.0347	-0.392
Nc1nc(N)nc(NC2CC2)n1 [Cyromazine]	0.301 ± 0.13	0.26 ± 0.38	0.448	0.649	0.191	0.578
N=C(N)Nc1ccc(C(=O)Oc2ccc3cc(C(=N)N)ccc3c2)cc1 [Nafamostat mesylate]	-0.34 ± 0.13	-0.0251 ± 0.76	0.181	0.0404	-0.0433	0.0323
C[C@@H](O[C@H]1OCCN(Cc2nn(P(=O)(O)O)c(=O)[nH]2)[C@H]1c1ccc(F)cc1)c1cc(C(F)(F)F)cc(C(F)(F)F)c1 [Fosaprepitant dimeglumine]	-0.705 ± 0.54	-1.14 ± 0.15	-0.519	-1.3	-1.59	-4.43
Cc1ccc(C)c(OCCCC(C)(C)C(=O)O)c1 [Gemfibrozil (Lopid)]	0.236 ± 1.1	-0.293 ± 0.24	-0.708	-1.44	-0.0827	0.0231
CC(C)C(=O)Nc1ccc([N+](=O)[O-])c(C(F)(F)F)c1 [Flutamide (Eulexin)]	-0.446 ± 0.61	-0.543 ± 0.043	0.248	-0.175	0.0246	-0.449
CN(CCOc1ccc(CC2SC(=O)NC2=O)cc1)c1ccccn1 (configuration not stated) [Rosiglitazone (Avandia)]	0.495 ± 1	0.523 ± 1.4	1.18	1.67	0.989	1.65
CCn1cc(C(=O)O)c(=O)c2cc(F)c(N3CCNCC3)cc21 [Norfloxacin (Norxacin)]	0.0784 ± 1.2	-0.234 ± 0.089	0.501	-0.00239	0.322	0.459
CC/C(=C(/CC)c1ccc(O)cc1)c1ccc(O)cc1 [Diethylstilbestrol (Stilbestrol)]	0.00791 ± 0.077	-3.49 ± 1.3	-4.43	0.00748	-0.781	-1.22
CCc1cccc2c3c([nH]c12)C(CC)(CC(=O)O)OCC3 (configuration not stated) [Etodolac (Lodine)]	0.111 ± 0.42	0.325 ± 0.46	0.0503	-0.597	0.558	0.209
CCCCC(CC)CNC(=N)NC(=N)NCCCCCCNC(=N)NC(=N)NCC(CC)CCCC (configuration not stated) [Alexidine HCl]	-10.8 ± 0.99	-12.5 ± 7.7	-8.99	-12.3	-10.4	-15.9
CS(=O)(=O)OCCCCOS(C)(=O)=O [Busulfan (Myleran, Busulfex)]	0.315 ± 0.26	0.451 ± 0.25	-0.613	-0.28	0.323	0.0815
Nc1nc2[nH]cnc2c(=S)[nH]1 [Thioguanine]	-4.36 ± 2	-7.3 ± 3.2	-4.08	-9.75	-3.24	-5.98
C#CCN[C@@H]1CCc2ccccc21 [Rasagiline mesylate]	-0.0363 ± 0.59	0.282 ± 0.63	-0.88	-0.777	-0.421	0.161
CC1=NN(c2ccccc2)C(=O)C1 [Edaravone (MCI-186)]	0.23 ± 0.12	-0.437 ± 0.27	-0.656	-0.13	-0.125	-0.243
O=c1[nH]c(=O)n([C@H]2C[C@H](O)[C@@H](CO)O2)cc1I [Idoxuridine]	1.13 ± 0.4	-1.96 ± 0.31	2.15	-4.84	0.119	-1.54
Nc1nc(CC(=O)Nc2ccc(CCNC[C@H](O)c3ccccc3)cc2)cs1 [Mirabegron (YM178)]	-0.33 ± 0.95	0.221 ± 0.79	0.191	0.353	-0.296	0.0325
CC1(C)S[C@@H]2[C@H](NC(=O)[C@H](N)c3ccc(O)cc3)C(=O)N2[C@H]1C(=O)O [Amoxicillin (Amoxycillin)]	0.317 ± 0.3	0.747 ± 1.4	0.789	1.24	-0.00445	0.324
CCOC(=O)C1=C[C@]2(CC)CCCN3CCc4c(n1c1ccccc41)[C@@H]32 [Vinpocetine (Cavinton)]	-0.00164 ± 0.31	0.0448 ± 0.27	-0.379	0.0932	-0.0497	0.13

SMILES	log2 surviving fraction (OVCAR4; [1])	log2 surviving fraction (OVCAR4; [2])	log2 surviving fraction (Ov4Carbo; [1])	log2 surviving fraction (Ov4Carbo; [2])	log2 surviving fraction (Ov4Cis; [1])	log2 surviving fraction (Ov4Cis; [2])
CCC(=O)O[C@]1(C(=O)SCF)[C@H](C)C[C@H]2[C@@H]3C[C@H](F)C4=CC(=O)C=C[C@]4(C)[C@@]3(F)[C@@H](O)C[C@@]21C [Fluticasone propionate (Flonase, Veramyst)]	0.81 ± 0.095	0.296 ± 0.56	1.01	0.239	1.22	-0.754
CN1C(=O)CCS(=O)(=O)C1c1ccc(Cl)cc1 (configuration not stated) [Chlormezanone (Trancopal)]	0.322 ± 0.95	-0.0767 ± 0.78	0.0671	0.111	-0.428	-0.251
O=C1OC(CN2CCOCC2)CN1/N=C/c1ccc([N+](=O)[O-])o1 (configuration not stated) [Furaltadone HCl]	-0.292 ± 0.36	-0.862 ± 0.6	-0.536	-0.387	-0.2	-0.355
CN(CCOc1ccc(CC2SC(=O)NC2=O)cc1)c1ccccn1 (configuration not stated) [Rosiglitazone maleate]	1.31 ± 0.61	0.606 ± 0.6	0.708	0.271	0.326	0.165
Cc1ccc(NC(=O)c2ccc(CN3CCN(C)CC3)cc2)cc1Nc1nc(-c2cccnc2)cs1 [Masitinib (AB1010)]	-0.266 ± 0.035	-4.1 ± 3.4	-1.3	-1.64	-3.8	-2.55
N=C(N)NC(=N)N1CCOCC1 [Moroxydine]	-0.184 ± 0.34	-0.281 ± 0.28	-0.0869	0.265	-1.04	-0.275
Nc1nc(=O)c2c([nH]1)NC[C@H](CNc1ccc(C(=O)N[C@@H](CCC(=O)O)C(=O)O)cc1)N2C=O [Calcium levofolinate (Calcium Folinate)]	0.575 ± 0.5	0.62 ± 0.55	0.201	0.158	0.917	1.08
N=C(N)c1ccc(N=NNc2ccc(C(=N)N)cc2)cc1 [Diminazene Aceturate]	-0.639 ± 0.72	-0.907 ± 1.2	-1.14	-2.45	-0.223	-0.379
COc1ccc(CC(C)NCC(O)c2ccc(O)c(NC=O)c2)cc1 (configuration not stated) [Formoterol hemifumarate]	1.8 ± 1.3	-0.538 ± 0.22	2.03	0.0303	0.73	0.152
Cc1c(NC(=O)c2cccnc2)c(=O)n(-c2ccccc2)n1C [Nifenazone]	0.00343 ± 0.37	-0.39 ± 1.1	1.16	0.264	0.42	-0.136
CCCC(=O)OCOC(=O)C1=C(C)NC(C)=C(C(=O)OC)C1c1cccc(Cl)c1Cl (configuration not stated) [Cleviprex (Clevidipine)]	1.36 ± 1.1	0.23 ± 0.51	0.463	0.522	-0.86	0.526
CCCN[C@H]1CCc2nc(N)sc2C1 [Pramipexole (Mirapex)]	1.31 ± 1	0.817 ± 0.6	1.47	1.61	0.281	0.84
Cc1c(Cl)cccc1Nc1ccccc1C(=O)O [Tolfenamic acid]	-0.00229 ± 0.22	0.915 ± 0.46	1.5	-0.748	-0.066	-0.0476
CCC[C@H](N[C@@H](C)C(=O)N1[C@H](C(=O)O)C[C@@H]2CCCC[C@@H]21)C(=O)OCC [Perindopril Erbumine (Aceon)]	-0.161 ± 0.16	-0.271 ± 0.14	0.147	-0.274	-0.0893	-0.0321
CC(C)(C)NCC(O)c1ccc(O)c(CO)c1 (configuration not stated) [Salbutamol sulfate (Albuterol)]	-0.365 ± 0.46	0.0866 ± 0.2	-0.53	0.185	-0.203	-0.0178
Oc1ccc(/C=C/c2cc(O)cc(O)c2)cc1 [Resveratrol]	-2.15 ± 0.47	-2.32 ± 0.28	-1.43	-2.86	-3.04	-2.76
CCOC(CN1CCN(CC(C)C(=O)c2ccccc2)CC1)c1ccccc1 (configuration not stated) [Eprazinone 2HCl]	0.105 ± 0.18	0.356 ± 0.84	-0.113	0.793	-0.0521	0.623
CC(C)c1c(CN(C)C(C)Cc2ccccc2)n(C)n(-c2ccccc2)c1=O (configuration not stated) [Famprofazone]	-0.543 ± 0.6	-0.375 ± 0.87	1.24	0.862	-0.856	-0.831
Cc1oncc1C(=O)Nc1ccc(C(F)(F)F)cc1 [Leflunomide]	0.284 ± 0.34	-1.7 ± 4	0.0134	1.58	1.02	0.291
O=C1CCc2ccc(OCCCCN3CCN(c4cccc(Cl)c4Cl)CC3)cc2N1 [Aripiprazole (Abilify)]	1.21 ± 0.78	0.099 ± 0.19	-1.49	0.531	-0.388	0.137
CC[C@@]1(O)C(=O)OCc2c1cc1n(c2=O)Cc2cc3c(CN(C)C)c(O)ccc3nc2-1 [Topotecan HCl]	-10 ± 2.4	-11.6 ± 10	-7.66	-10.5	-9.48	-17.2
NS(=O)(=O)Cc1noc2ccccc12 [Zonisamide]	1.4 ± 0.39	0.3 ± 0.39	0.341	1.1	0.118	1.32
O=C(O)CCc1nc2ccccc2[nH]1 [Procodazole]	0.602 ± 0.2	-0.318 ± 0.88	0.367	-1.63	-0.0931	0.0389
